The campaign covered roughly 48,000 compounds. About 450 (0.94%) were called active. Inconclusive results (about 19%) are left out. Calls come from the whole dose curve; as a rule, active = well fitted inhibition curve with a large enough effect; inconclusive = small, poorly fitted or top-dose-only effect; inactive = no such curve, though single readings can be large or run the other way. The list shows a part of the results.

This test in a line: Primary qHTS for Identification of Small Molecule Inhibitors of Huntingtin Promoter Activity. Note: nearly all actives have a fitted effect of over 50% in size. The settings on record: HEK293 HTT promoter firefly luciferase reporter (activity 0% = vehicle and -100% = no light), 24 h; series mostly up to 57.5 µM; activity change, negative = inhibition: at the top concentration. A digest of the protocol: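 HEK293 luciferase promoter-reporter cells (2,500/well) plated 24 h, then compounds added at up to 57.5 uM final for 24 h at 37 °C. Firefly luminescence by Dual-Glo, normalized to vehicle (0%) and zero RLU (-100%).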
With `CCc1nn(CC(=O)Nc2c(C)cc(C)cc2C)c(=O)c2cc3sccc3n12`, the “activity change, negative = inhibition” value is inactive: -5.55%.

Take `C=Cc1ccc(Cn2c(=O)n(-c3ccccc3C)c(=O)c3c4c(sc32)CN(C(C)=O)CC4)cc1`: the “activity change, negative = inhibition” value was inactive: -27.5%.

On to `Cc1ccc(N(C)S(=O)(=O)c2ccc3[nH]cc(C(=O)O)c(=O)c3c2)cc1C`, for which the “activity change, negative = inhibition” value is inactive: -0.855%.

On to `CCN(Cc1ccccc1)C(=O)Nc1ccc2c(c1)N(C)C(=O)c1ccccc1S2`, for which the “activity change, negative = inhibition” value was inactive: -9.5%.

On to `CN1CCC(=C2c3ccccc3C=Cc3ccccc32)CC1`, for which the activity change, negative = inhibition result is “inactive”.

`CCOC(=O)c1c(-c2ccc(C)cc2)csc1NC(=O)c1cc(=O)c2cc(C)c(C)cc2o1`: the “activity change, negative = inhibition” value is inactive: -10.2%.

As to `Cc1ccc(NC(=O)C2CCN(c3nc4ccccc4[nH]3)CC2)cc1Cl`, the “activity change, negative = inhibition” value was inactive: -3.07%.

Regarding `O=C(NC1(C(F)(F)F)NC(=O)N(CCc2ccccc2)C1=O)c1ccccc1F` (stereo not drawn), the “activity change, negative = inhibition” value is inactive: -5.2%.

Turning to `COc1cccc(CSc2nc3cc(OC)c(OC)cc3c3nc(CCn4nc(C)cc4C)nn23)c1`, the “activity change, negative = inhibition” value was inactive: -3.08%.

For the molecule `CCOc1ccc2nc(N(Cc3cccnc3)C(=O)c3ccc4c(c3)OCCO4)sc2c1`, the “activity change, negative = inhibition” value was inactive: -5.12%.

As for `COC(=O)c1cc2sc(C)cc2n1Cc1ccc(F)cc1Cl`, the “activity change, negative = inhibition” value is inactive: -12.7%.

`O=c1n(Cc2ccc(F)cc2Cl)c2ccccc2c2nc(-c3ccccc3)nn12`: the “activity change, negative = inhibition” value is inactive: -11.9%.

On to `CCCCN(CC)CCCNC(=O)c1cn(CC(C)C)c(=O)c2c1c1ccccc1n2C`, for which the “activity change, negative = inhibition” value is inactive: -17.3%.

In the case of `Cn1c(=O)c2c(nc(NCCc3ccccc3)n2Cc2cccc(Br)c2)n(C)c1=O`, the “activity change, negative = inhibition” value is inactive: -14%.

Consider `Cc1ccc(CCNC(=O)c2nnc(Cc3cccc(F)c3)o2)cc1`, for which the “activity change, negative = inhibition” value was inactive: -16.6%.

Regarding `CC(C)Oc1ccc(C(=O)Nc2ccc3oc(-c4ccncc4)nc3c2)cc1`, the “activity change, negative = inhibition” value was inactive: -41.7%.

Turning to `COc1ccc(S(=O)(=O)NCC(c2cccs2)S(=O)(=O)c2ccc(C)cc2)cc1F` (stereo not drawn), the “activity change, negative = inhibition” value is inactive: -26.4%.

With `Cc1[nH]c2ccc(F)cc2c1CCNC(=O)c1cc2cc(Cl)ccc2oc1=O`, the “activity change, negative = inhibition” value is inactive: 17.3%.

For `COc1cc(NC(=O)C(NC(=O)C2CCC(C)CC2)C(C)C)cc(OC)c1OC` (stereo not drawn), the “activity change, negative = inhibition” value was inactive: 10.1%.

Consider `COc1ccc(Cl)cc1NS(=O)(=O)c1c(C)nc2scc(C)n2c1=O`, for which the “activity change, negative = inhibition” value is inactive: -5.06%.

With `COCCn1c(CNC(=O)c2cc([N+](=O)[O-])ccc2Cl)nc2cccnc21`, the “activity change, negative = inhibition” value was inactive: 1.96%.

For `COc1ccc(C(=O)Nc2onc3c2CCCC3)cc1`, the “activity change, negative = inhibition” value was inactive: 2.17%.

Take `COc1ccc(NC(=O)Cn2cnc3c(nc4n3CCCCC4)c2=O)c(OC)c1`: the activity change, negative = inhibition was inactive: -15.2% [at 11.5 µM].

`COCCCn1c(=N)c(C(=O)NC2CCCCC2)cc2c(=O)n3ccccc3nc21`: the “activity change, negative = inhibition” value is inactive: -1.69%.

Turning to `COc1ccc(C2=CC(c3ccc(N(C)C)cc3)n3nnnc3N2)cc1` (stereo not drawn), the “activity change, negative = inhibition” value is inactive: -5.35%.

For `Cc1c(CNC2CCCCCC2)c(C(=O)O)c(C)n1Cc1c(F)cccc1Cl`, the “activity change, negative = inhibition” value is inactive: -21.5%.

As to `CCOC(=O)c1ccccc1NC(=O)Cc1c(C(=O)O)c(C)cn1C`, the “activity change, negative = inhibition” value is inactive: -22.9%.

On to `CCOC(=O)c1ccc(N2C(=O)c3n[nH]c(C)c3C2c2ccc(O)c(OC)c2)cc1` (stereo not drawn), for which the “activity change, negative = inhibition” value was inactive: 4.3%.

Regarding `COc1ccc(N2CCN(C(=O)Cn3cnc4sc(C)c(S(=O)(=O)N5CCC(C)CC5)c4c3=O)CC2)cc1`, the “activity change, negative = inhibition” value was inactive: -2.94%.

For the molecule `Cc1ccc(-n2ncc(C(=O)N3CCN(c4ccccn4)CC3)c2C2CCN(C(=O)OC(C)(C)C)CC2)cc1C`, the “activity change, negative = inhibition” value was inactive: 1.69%.

Take `Cc1cc(=O)oc2c3c(ccc12)OCN(Cc1ccccc1Cl)C3`: the “activity change, negative = inhibition” value was inactive: -15.9%.

As to `Cc1ccc(NC(=O)N(Cc2c[nH]c3ccccc23)C2CCCCCC2)cc1C`, the “activity change, negative = inhibition” value was inactive: 14.3%.

Turning to `O=c1n(Cc2ccc([N+](=O)[O-])cc2)c2ccccc2c2nc(-c3ccccc3)nn12`, the “activity change, negative = inhibition” value was inactive: -12.5%.

Turning to `Cc1c(NC(=O)Nc2ccccc2C(F)(F)F)c(=O)n(-c2ccccc2)n1C`, the “activity change, negative = inhibition” value was inactive: -5.14%.

As to `CCOc1ccc(C2=C(C(C)=O)Sc3nnc(C)n3N2C(C)=O)cc1`, the “activity change, negative = inhibition” value is inactive: -23.2%.

On to `Cn1c(=O)n(C)c2cc(CNCc3ccc(F)cc3)ccc21`, for which the “activity change, negative = inhibition” value was inactive: -8.95%.

Turning to `Cc1ccc(Cn2cnc3nc4c(cc3c2=O)CCCC4)cc1`, the “activity change, negative = inhibition” value is inactive: 35.4%.

With `CCOc1ccc(NC(=O)c2cccc3c(=O)c4c([nH]c23)CCCC4)cc1`, the “activity change, negative = inhibition” value is inactive: -10.4%.

Regarding `Cc1cc(C)cc(-n2c(SCC(=O)Nc3ccccc3F)nc3c(oc4ccccc43)c2=O)c1`, the “activity change, negative = inhibition” value is inactive: -17.9%.

As to `COc1ccc(CCNC(=O)CCN2N=C(c3ccccc3)CCC2=O)cc1OC`, the “activity change, negative = inhibition” value was inactive: 13.1%.

`CCc1ccc(NC(=O)C2(c3cccs3)CCOCC2)cc1`: the “activity change, negative = inhibition” value was inactive: -6.02%.

For the molecule `Cc1oc2ncn(CC(C)C)c(=O)c2c1C(=O)N1CCN(c2ccccc2F)CC1`, the “activity change, negative = inhibition” value was inactive: -2.95%.

Turning to `Cc1cc(C)c(NC(=O)CN(c2ccccc2)S(=O)(=O)N(C)C)c(C)c1`, the “activity change, negative = inhibition” value is inactive: -14.9%.

As for `O=C(Nc1ccc2oc(-c3ccc4ccccc4c3)nc2c1)c1cccc(Cl)c1Cl`, the activity change, negative = inhibition is inactive: -6.47% [at 11.5 µM].

Turning to `Clc1ccc(-c2nnn3c2nc(N2CCCCC2)c2ccccc23)cc1`, the “activity change, negative = inhibition” value is inactive: -1.57%.

In the case of `Cc1ccccc1NC(=O)c1cc2ccccc2o1`, the “activity change, negative = inhibition” value is inactive: 81.9%.

For `COC(=O)c1sc2cccc(F)c2c1S(=O)(=O)NCc1ccc(F)cc1`, the “activity change, negative = inhibition” value was inactive: 0%.

Turning to `COc1ccc(C2CC(=O)N(Cc3cccc(C)c3)c3c2c(C)nn3-c2nc(C)cc(C)n2)c(OC)c1` (stereo not drawn), the “activity change, negative = inhibition” value is inactive: -21.7%.

The values above are taken from PubChem BioAssay AID1508623 (National Center for Advancing Translational Sciences (NCATS), 2021).
